Laboratory results published in publication PMC3879368, “Characterisation of a Multi-ligand Binding Chemoreceptor CcmL (Tlp3) of Campylobacter jejuni” (PLoS Pathogens, 2014).
Results are given in words; binding and its absence hold for the method and conditions named. Some results given as binding are weak or reduced against the parent protein; the word gives no strength.

Sequences of proteins named here, by UniProt entry; tags and fusion partners are left off. Residues count along the entry.
UniProt Q0P864, residues 517-662: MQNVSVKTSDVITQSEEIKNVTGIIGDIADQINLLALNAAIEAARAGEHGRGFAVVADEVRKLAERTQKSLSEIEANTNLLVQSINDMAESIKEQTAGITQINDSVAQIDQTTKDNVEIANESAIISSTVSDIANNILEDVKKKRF
UniProt P0C635: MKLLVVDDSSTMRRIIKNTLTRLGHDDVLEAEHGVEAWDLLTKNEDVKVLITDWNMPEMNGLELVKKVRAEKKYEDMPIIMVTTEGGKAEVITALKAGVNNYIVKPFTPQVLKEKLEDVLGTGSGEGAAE

How the values were obtained:
[1] = molecular target: Tlp^sig _(2.3.4), the cytoplasmic signalling domain of Tlp3 (Cj1564, CcmL), residues 517-662 (C. jejuni NCTC11168-O) (UniProt Q0P864); assay: two-hybrid; yeast two-hybrid, GAL-4 DNA-BD (bait) and AD (target) fusions co-transformed; growth on high and intermediate stringency media; both combinations of fusions tested
[2] = molecular target: T1, CheA (C. jejuni NCTC11168-O) (UniProt Q0PBM2); assay: as above
T1 sequence: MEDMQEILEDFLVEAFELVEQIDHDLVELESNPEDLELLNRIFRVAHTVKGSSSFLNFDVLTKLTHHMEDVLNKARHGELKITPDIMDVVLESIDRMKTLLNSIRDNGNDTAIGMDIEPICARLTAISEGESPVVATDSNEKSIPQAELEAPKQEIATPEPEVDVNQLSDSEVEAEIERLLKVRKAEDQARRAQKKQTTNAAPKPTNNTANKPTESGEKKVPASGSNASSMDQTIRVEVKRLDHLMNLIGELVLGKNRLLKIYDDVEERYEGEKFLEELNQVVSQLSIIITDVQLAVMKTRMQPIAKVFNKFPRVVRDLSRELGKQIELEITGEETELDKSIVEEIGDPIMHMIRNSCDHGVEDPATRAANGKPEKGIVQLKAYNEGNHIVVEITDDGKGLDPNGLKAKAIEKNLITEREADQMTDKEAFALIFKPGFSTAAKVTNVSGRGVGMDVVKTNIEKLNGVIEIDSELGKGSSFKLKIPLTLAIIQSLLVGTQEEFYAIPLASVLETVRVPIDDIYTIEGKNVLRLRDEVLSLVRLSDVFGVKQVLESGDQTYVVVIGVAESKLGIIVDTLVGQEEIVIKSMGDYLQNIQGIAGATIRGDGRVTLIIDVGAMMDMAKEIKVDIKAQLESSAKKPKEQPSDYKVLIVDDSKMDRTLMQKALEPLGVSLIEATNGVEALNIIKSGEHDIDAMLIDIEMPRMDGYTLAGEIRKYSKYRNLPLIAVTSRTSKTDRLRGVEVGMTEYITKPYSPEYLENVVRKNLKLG

[3] = molecular target: T2, CheV (C. jejuni NCTC11168-O) (UniProt Q0PBM1); assay: as above
T2 sequence: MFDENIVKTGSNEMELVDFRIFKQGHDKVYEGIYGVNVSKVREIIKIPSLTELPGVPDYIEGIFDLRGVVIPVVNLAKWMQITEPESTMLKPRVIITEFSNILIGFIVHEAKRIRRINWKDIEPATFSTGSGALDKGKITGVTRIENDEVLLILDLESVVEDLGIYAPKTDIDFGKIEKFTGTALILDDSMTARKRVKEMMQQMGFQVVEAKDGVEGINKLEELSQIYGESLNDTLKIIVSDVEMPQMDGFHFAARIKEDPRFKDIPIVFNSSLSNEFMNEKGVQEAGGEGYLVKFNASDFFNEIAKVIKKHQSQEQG

[4] = molecular target: CheY (C. jejuni NCTC11168-O) (UniProt P0C635); assay: as above
[5] = molecular target: T2, CheV (C. jejuni NCTC11168-O); assay: yeast three-hybrid; GAL-4 BD and AD fusions with native CheW as conditionally expressed third protein (pBrTlp234IWII, pBrVIWII); expression of CheW induced; growth on His deficient media
[6] = molecular target: T2, CheV (C. jejuni NCTC11168-O); assay: yeast three-hybrid; GAL-4 BD and AD fusions with native CheW as conditionally expressed third protein (pBrTlp234IWII, pBrVIWII); expression of CheW repressed; growth on His deficient media
[7] = molecular target: Tlp^sig _(2.3.4), the cytoplasmic signalling domain of Tlp3 (Cj1564, CcmL), residues 517-662 (C. jejuni NCTC11168-O) (UniProt Q0P864); assay: yeast three-hybrid; GAL-4 BD and AD fusions with native CheV as conditionally expressed third protein (pBrTlp234IVII, pBrWIVII); expression of CheV induced; growth on His deficient media
[8] = molecular target: Tlp^sig _(2.3.4), the cytoplasmic signalling domain of Tlp3 (Cj1564, CcmL), residues 517-662 (C. jejuni NCTC11168-O) (UniProt Q0P864); assay: yeast three-hybrid; GAL-4 BD and AD fusions with native CheW as conditionally expressed third protein (pBrTlp234IWII, pBrVIWII); expression of CheW induced; growth on His deficient media
[9] = molecular target: Tlp^sig _(2.3.4), the cytoplasmic signalling domain of Tlp3 (Cj1564, CcmL), residues 517-662 (C. jejuni NCTC11168-O) (UniProt Q0P864); assay: yeast three-hybrid; GAL-4 BD and AD fusions with native CheV as conditionally expressed third protein (pBrTlp234IVII, pBrWIVII); expression of CheV repressed; growth on His deficient media
[10] = molecular target: Tlp^sig _(2.3.4), the cytoplasmic signalling domain of Tlp3 (Cj1564, CcmL), residues 517-662 (C. jejuni NCTC11168-O) (UniProt Q0P864); assay: yeast three-hybrid; GAL-4 BD and AD fusions with native CheW as conditionally expressed third protein (pBrTlp234IWII, pBrVIWII); expression of CheW repressed; growth on His deficient media

In the case of CheY (from UniProt P0C635 1-130), the binding [1] is reported as “no binding”.

In the case of “Tlp^sig _(2.3.4), the cytoplasmic signalling domain of Tlp3 (Cj1564, CcmL), residues 517-662 (from UniProt Q0P864 517-662) (domain or fragment)”, the binding [2] is reported as “no binding”, the binding [3] is reported as “binds” and the binding [4] is reported as “no binding”. For the same molecule, the binding [5] was “binds” and the binding [6] was “binds”.

B1: CheV (protein, UniProt Q0PBM1 1-318)
chain: MFDENIVKTGSNEMELVDFRIFKQGHDKVYEGIYGVNVSKVREIIKIPSLTELPGVPDYIEGIFDLRGVVIPVVNLAKWMQITEPESTMLKPRVIITEFSNILIGFIVHEAKRIRRINWKDIEPATFSTGSGALDKGKITGVTRIENDEVLLILDLESVVEDLGIYAPKTDIDFGKIEKFTGTALILDDSMTARKRVKEMMQQMGFQVVEAKDGVEGINKLEELSQIYGESLNDTLKIIVSDVEMPQMDGFHFAARIKEDPRFKDIPIVFNSSLSNEFMNEKGVQEAGGEGYLVKFNASDFFNEIAKVIKKHQSQEQG
For B1, the binding [1] was “binds”, the binding [7] was “binds” and the binding [8] was “binds”. The binding [9] was “binds” and the binding [10] was “binds”.

B2: CheA (enzyme, UniProt Q0PBM2 1-769)
chain: MEDMQEILEDFLVEAFELVEQIDHDLVELESNPEDLELLNRIFRVAHTVKGSSSFLNFDVLTKLTHHMEDVLNKARHGELKITPDIMDVVLESIDRMKTLLNSIRDNGNDTAIGMDIEPICARLTAISEGESPVVATDSNEKSIPQAELEAPKQEIATPEPEVDVNQLSDSEVEAEIERLLKVRKAEDQARRAQKKQTTNAAPKPTNNTANKPTESGEKKVPASGSNASSMDQTIRVEVKRLDHLMNLIGELVLGKNRLLKIYDDVEERYEGEKFLEELNQVVSQLSIIITDVQLAVMKTRMQPIAKVFNKFPRVVRDLSRELGKQIELEITGEETELDKSIVEEIGDPIMHMIRNSCDHGVEDPATRAANGKPEKGIVQLKAYNEGNHIVVEITDDGKGLDPNGLKAKAIEKNLITEREADQMTDKEAFALIFKPGFSTAAKVTNVSGRGVGMDVVKTNIEKLNGVIEIDSELGKGSSFKLKIPLTLAIIQSLLVGTQEEFYAIPLASVLETVRVPIDDIYTIEGKNVLRLRDEVLSLVRLSDVFGVKQVLESGDQTYVVVIGVAESKLGIIVDTLVGQEEIVIKSMGDYLQNIQGIAGATIRGDGRVTLIIDVGAMMDMAKEIKVDIKAQLESSAKKPKEQPSDYKVLIVDDSKMDRTLMQKALEPLGVSLIEATNGVEALNIIKSGEHDIDAMLIDIEMPRMDGYTLAGEIRKYSKYRNLPLIAVTSRTSKTDRLRGVEVGMTEYITKPYSPEYLENVVRKNLKLG
In the case of B2, the binding [1] is reported as “no binding”.
